# Measured values as given in the supplement of paper PMC8728848.
# The list shows a part of the results.
# Tests used:
# Assay in all cases: glycan array binding signal (z-score within array); higher = stronger binding
# Conditions in all cases: glycan notation: IUPAC condensed, linker removed
# Gal3S(b1-4)Glc = molecular target: Gal3S(b1-4)Glc
# How it was run: (§1)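 Arrays were curated from the Consortium for Functional Glycomics database, 3228 in total, and kept only where the protein sequence was available. Binding is expressed as a within-array Z-score. This score was averaged across arrays of the same protein sequence at different concentrations or buffers and across linkers, and negative values can be read as non-binding.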
# Gal3S(b1-4)Glc6S = molecular target: Gal3S(b1-4)Glc6S
# How it was run: as §1
# Gal3S(b1-4)GlcNAc = molecular target: Gal3S(b1-4)GlcNAc
# How it was run: as §1
# [1] = molecular target: Gal3S(b1-4)[Fuc(a1-3)]Glc6S
# How it was run: as §1
# [2] = molecular target: Gal3S(b1-4)[Fuc(a1-3)]GlcNAc
# How it was run: as §1
# [3] = molecular target: Gal3S(b1-4)[Fuc(a1-3)]GlcNAc6S
# How it was run: as §1
# Gal3S4S(b1-4)GlcNAc = molecular target: Gal3S4S(b1-4)GlcNAc
# How it was run: as §1
# Gal3S6S(b1-4)GlcNAc = molecular target: Gal3S6S(b1-4)GlcNAc
# How it was run: as §1
# Gal3S6S(b1-4)GlcNAc6S = molecular target: Gal3S6S(b1-4)GlcNAc6S
# How it was run: as §1
# Gal4S(b1-4)GlcNAc = molecular target: Gal4S(b1-4)GlcNAc
# How it was run: as §1
# Gal4S6S(b1-4)GlcNAc = molecular target: Gal4S6S(b1-4)GlcNAc
# How it was run: as §1
# Gal6P(b1-4)GlcNAc = molecular target: Gal6P(b1-4)GlcNAc
# How it was run: as §1
# Gal6S(b1-3)GlcNAc = molecular target: Gal6S(b1-3)GlcNAc
# How it was run: as §1
# Gal6S(b1-3)GlcNAc6S = molecular target: Gal6S(b1-3)GlcNAc6S
# How it was run: as §1
# Gal6S(b1-4)Glc = molecular target: Gal6S(b1-4)Glc
# How it was run: as §1
# Gal6S(b1-4)Glc6S = molecular target: Gal6S(b1-4)Glc6S
# How it was run: as §1
# Gal6S(b1-4)GlcNAc = molecular target: Gal6S(b1-4)GlcNAc
# How it was run: as §1
# Gal6S(b1-4)GlcNAc6S = molecular target: Gal6S(b1-4)GlcNAc6S
# How it was run: as §1
# GalNAc(a1-3)Gal = molecular target: GalNAc(a1-3)Gal
# How it was run: as §1
# GalNAc(a1-3)GalNAc = molecular target: GalNAc(a1-3)GalNAc
# How it was run: as §1
# [4] = molecular target: GalNAc(a1-3)GalNAc(b1-3)Gal(a1-4)Gal(b1-4)Glc
# How it was run: as §1
# [5] = molecular target: GalNAc(a1-3)GalNAc(b1-3)Gal(a1-4)Gal(b1-4)GlcNAc
# How it was run: as §1
# GalNAc(b1-3)Gal = molecular target: GalNAc(b1-3)Gal
# How it was run: as §1
# [6] = molecular target: GalNAc(b1-3)Gal(a1-4)Gal(b1-4)GlcNAc
# How it was run: as §1
# [7] = molecular target: GalNAc(b1-3)Gal(a1-4)Gal(b1-4)GlcNAc(b1-3)Gal(b1-4)Glc
# How it was run: as §1
# [8] = molecular target: GalNAc(b1-3)Gal(a1-6)Gal(b1-4)Glc
# How it was run: as §1
# GalNAc(b1-3)GalNAc = molecular target: GalNAc(b1-3)GalNAc
# How it was run: as §1
# GalNAc(b1-3)GlcNAc = molecular target: GalNAc(b1-3)GlcNAc
# How it was run: as §1
# GalNAc(b1-4)Gal(b1-4)Glc = molecular target: GalNAc(b1-4)Gal(b1-4)Glc
# How it was run: as §1
# GalNAc(b1-4)GlcNAc = molecular target: GalNAc(b1-4)GlcNAc
# How it was run: as §1
# [9] = molecular target: GalNAc(b1-4)GlcNAc(b1-2)Man
# How it was run: as §1
# [10] = molecular target: GalNAc(b1-4)GlcNAc(b1-2)Man(a1-3)[GalNAc(b1-4)GlcNAc(b1-2)Man(a1-6)]Man(b1-4)GlcNAc(b1-4)GlcNAc
# How it was run: as §1
# [11] = molecular target: GalNAc(b1-4)GlcNAc(b1-3)GalNAc(b1-4)GlcNAc
# How it was run: as §1
# GalNAc(b1-4)GlcNAc6S = molecular target: GalNAc(b1-4)GlcNAc6S
# How it was run: as §1
# GalNAc(b1-6)GalNAc = molecular target: GalNAc(b1-6)GalNAc
# How it was run: as §1
# GalNAc3S(b1-4)GlcNAc = molecular target: GalNAc3S(b1-4)GlcNAc
# How it was run: as §1
# GalNAc3S(b1-4)GlcNAc3S = molecular target: GalNAc3S(b1-4)GlcNAc3S
# How it was run: as §1
# [12] = molecular target: GalNAc3S(b1-4)[Fuc(a1-3)]GlcNAc
# How it was run: as §1
# GalNAc4S6S(b1-4)GlcNAc = molecular target: GalNAc4S6S(b1-4)GlcNAc
# How it was run: as §1
# GalNAc6S(b1-4)GlcNAc = molecular target: GalNAc6S(b1-4)GlcNAc
# How it was run: as §1
# Glc(a1-4)Glc = molecular target: Glc(a1-4)Glc
# How it was run: as §1
# [13] = molecular target: Glc(a1-4)Glc(a1-4)Glc(a1-4)Glc
# How it was run: as §1
# Glc(a1-6)Glc(a1-6)Glc = molecular target: Glc(a1-6)Glc(a1-6)Glc
# How it was run: as §1
# [14] = molecular target: Glc(a1-6)Glc(a1-6)Glc(a1-6)Glc
# How it was run: as §1
# Glc(b1-4)Glc = molecular target: Glc(b1-4)Glc
# How it was run: as §1
binder,measurement,setting,value
rEtpA (Escherichia coli) (protein) MNRIYKLKFDKRRNELVVVSEITTGVGNAKATGSVEGEKSPRRGVRAMALSLLSGMMIMAHPAMSANLPTGGQIVAGSGSIQTPSGNQMNIHQNSQNMVANWNSFDIGKGNTVQFDQPSSSAVALNRVVGGGESQIMGNLKANGQVFLVNPNGVLFGEGASVSTSGFVASTRDIKNDDFMNRRYTFSGGQKAGAAIVNQGELTTNAGGYIVLAADRVSNSGTIRTPGGKTVLAASERITLQLDNGGLMSVQVTGDVVNALVENRGLVSARDGQVYLTALGRGMLMNTVLNVSGVVEASGMHRQDGNIVLDGGDSGVVHLSGTLQADNASGQGGKVVVQGKNILLDKGSNITATGGQGGGEVYVGGGWQGKDSNIRNADKVVMQGGARIDVSATQQGNGGTAVLWSDSYTNFHGQISAKGGETGGNGGRVETSSHGNLQAFGTVSASAKKGKAGNWLLDSADITIVNGSNVSKTETTQSPPHTQFAPTAAGSAVSNTSINNRLNNGTSVTILTHRTRTGTAQGGNITVNAAINKSNGSDVNLTLQAGGNITVNNSITSTEGKLNVNLSGARTSNGSITISNNANITTNGGDITVGTTNTSNRVNISINNTTLNASNGNIQLTGTGTDSGILFAGNNRLTASNIALTGNSTSGNAINLTGTATLNATNNITLTGSSTSGNAINLKGNNTLTASNITLTGESTSGNAINLTDTTGTTTLNATNNITMQGTRVQIKHSNITAGNFALNATVAGSEISNTTLTATNNINLAAKTNSASSGVYLKDARITSTNGSITANGTATANGKATHLDGNVTLNASNGRIKLTGNGHGSASGILFAGNNRLTASNIALTGNSTSGNAINLTGTATLNATNDITLTGSSTSGNAINLTGTATLNATNNITLTGSSTSGNAINLKGNNTLTASNITLTGESTSGNAINLTDTTGTTTLNATNNITMQGTRVQIKHSNITAGNFALNATVAGSEISNTTLTATNNINLAAKTNSASSGVYLKDARITSTNGSITANGTATANGKATHLDGNVTLNASNGRIKLTGNGHGSASGILFAGNNRLTASNIALTGNSTSGNAINLTGTATLNATNDITLTGSSTSGNAINLTGTATLNATNNITLTGSSTSGNAINLKGNNTLTASNITLTGESTSGNAINLTDTTGTTTLNATNNITMQGTRVQIKHSNITAGNFALNATVAGSEISNTTLTATNNINLAAKTNSASSGVYLKDARITSTNGSITANGTATANGKATHLDGNVTLNASNGRIKLTGNGHGSASGILFAGNNRLTASNIALTGNSTSGNAINLTGTATLNATNDITLTGSSTSGNAINLTGTATLNATNNITLTGSSTSGNAINLKGNNTLTASNITLTGESTSGNAINLTDTTGTTTLNATNNITMQGTRVQIKHSNITAGNFALNATVAGSEISNTTLTATNNINLAAKTNSASSGVYLKDARITSTNGSITTNGTATANGKATHLDGNVTLNASNGRIKLTGNGHGSASGILFAGNNRLTASNIALTGNSTSGNAINLTGTATLNATNDITLTGSSTSGNAINLTGTATLNATNNITLTGSSTSGNAINLKGNNTLTASNITLTGESTSGNAINLTDTTGTTTLNATNNITMQGTRVQIKHSNITAGNFALNATVAGSEISNTTLTATNNINLAAKTNSASSGVYLKDARITSTNGSITANGTAPANDNATYLDGNVTLNASNGSIKLTGNGNGSTSGILFAGNNTLTASNITLTGNSEVYWQKLGPEQKLISEEDLNSAVDHHHHHH,glycan array binding signal (z-score),Gal3S(b1-4)Glc,0.184
same,glycan array binding signal (z-score),Gal3S(b1-4)Glc6S,0.356
same,glycan array binding signal (z-score),Gal3S(b1-4)GlcNAc,-0.045
same,glycan array binding signal (z-score),[1],0.805
same,glycan array binding signal (z-score),[2],-0.202
same,glycan array binding signal (z-score),[3],0.771
same,glycan array binding signal (z-score),Gal3S4S(b1-4)GlcNAc,-0.041
same,glycan array binding signal (z-score),Gal3S6S(b1-4)GlcNAc,-0.028
same,glycan array binding signal (z-score),Gal3S6S(b1-4)GlcNAc6S,0.444
same,glycan array binding signal (z-score),Gal4S(b1-4)GlcNAc,1.38
same,glycan array binding signal (z-score),Gal4S6S(b1-4)GlcNAc,-0.189
same,glycan array binding signal (z-score),Gal6P(b1-4)GlcNAc,-0.372
same,glycan array binding signal (z-score),Gal6S(b1-3)GlcNAc,0.534
same,glycan array binding signal (z-score),Gal6S(b1-3)GlcNAc6S,-0.365
same,glycan array binding signal (z-score),Gal6S(b1-4)Glc,1.63
same,glycan array binding signal (z-score),Gal6S(b1-4)Glc6S,0.346
same,glycan array binding signal (z-score),Gal6S(b1-4)GlcNAc,0.011
same,glycan array binding signal (z-score),Gal6S(b1-4)GlcNAc6S,0.353
same,glycan array binding signal (z-score),GalNAc(a1-3)Gal,0.571
same,glycan array binding signal (z-score),GalNAc(a1-3)GalNAc,0.181
same,glycan array binding signal (z-score),[4],-0.248
same,glycan array binding signal (z-score),[5],-0.107
same,glycan array binding signal (z-score),GalNAc(b1-3)Gal,-0.191
same,glycan array binding signal (z-score),[6],-0.378
same,glycan array binding signal (z-score),[7],-0.297
same,glycan array binding signal (z-score),[8],-0.156
same,glycan array binding signal (z-score),GalNAc(b1-3)GalNAc,-0.252
same,glycan array binding signal (z-score),GalNAc(b1-3)GlcNAc,-0.214
same,glycan array binding signal (z-score),GalNAc(b1-4)Gal(b1-4)Glc,0.679
same,glycan array binding signal (z-score),GalNAc(b1-4)GlcNAc,-0.268
same,glycan array binding signal (z-score),[9],-0.277
same,glycan array binding signal (z-score),[10],-0.255
same,glycan array binding signal (z-score),[11],-0.412
same,glycan array binding signal (z-score),GalNAc(b1-4)GlcNAc6S,-0.25
same,glycan array binding signal (z-score),GalNAc(b1-6)GalNAc,0.129
same,glycan array binding signal (z-score),GalNAc3S(b1-4)GlcNAc,0.119
same,glycan array binding signal (z-score),GalNAc3S(b1-4)GlcNAc3S,-0.247
same,glycan array binding signal (z-score),[12],-0.313
same,glycan array binding signal (z-score),GalNAc4S6S(b1-4)GlcNAc,-0.171
same,glycan array binding signal (z-score),GalNAc6S(b1-4)GlcNAc,-0.237
same,glycan array binding signal (z-score),Glc(a1-4)Glc,-0.364
same,glycan array binding signal (z-score),[13],1.05
same,glycan array binding signal (z-score),Glc(a1-6)Glc(a1-6)Glc,-0.067
same,glycan array binding signal (z-score),[14],0.087
same,glycan array binding signal (z-score),Glc(b1-4)Glc,-0.463
